# From the supplement of paper PMC9446081
# Screen size: about 39,000 compounds; about 220 (0.56%) showed activity. This is one part of the list.
# Test system: Escherichia coli K-12 BW25113
# Experiment: relative growth (OD600 normalised to plate interquartile mean) (fraction); higher = less growth inhibition, active = 0.2 or less
# Conditions: 50 µM; LB; incubation time: overnight (16-24 h)
# 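Note: static incubation at 37 °C against the wild-type strain, values averaged over two biological replicates.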
row,Compound,relative growth
1,C[C@H](CO)N1C[C@H](C)[C@H](CN(C)S(C)(=O)=O)Oc2ccc(NS(=O)(=O)c3cccs3)cc2CC1=O,inactive: 0.975
2,N[C@@H]1CC(=O)N(c2ccc(F)cc2)C1,inactive: 0.99
3,C[C@H]1CN([C@@H](C)CO)C(=O)Cc2cc(NC(=O)Nc3ccc(C#N)cc3)ccc2O[C@H]1CN(C)S(=O)(=O)c1ccc(Oc2ccccc2)cc1,inactive: 1.03
4,O=C(CCCCCNC(=O)OCc1ccc(CN(C(=O)Nc2ccccc2)[C@@H](Cc2ccccc2)Cn2cc(-c3ccccn3)nn2)cc1)NO,inactive: 0.983
5,C[C@@H]1CCCCO[C@H](CN(C)C(=O)C2CCCCC2)[C@@H](C)CN([C@@H](C)CO)C(=O)c2cc(NC(=O)Nc3ccc(C(F)(F)F)cc3)ccc2O1,inactive: 0.989
6,COc1ccc(CN2C[C@H](C)[C@@H](OC)CN(C)C(=O)c3cc(NC(=O)c4nc5ccccc5s4)ccc3OC[C@@H]2C)cc1,inactive: 1.01
7,C[C@@H]1CCCCO[C@@H](CN(C)C(=O)CCC(F)(F)F)[C@@H](C)CN([C@H](C)CO)C(=O)c2cc(NC(=O)Cc3ccccc3)ccc2O1,inactive: 0.97
8,CO[C@H]1CN(C)C(=O)c2ccc(NS(=O)(=O)c3cn(C)cn3)cc2OC[C@@H](C)N(Cc2cccc(F)c2)C[C@H]1C,inactive: 0.97
9,C[C@H]1CN([C@@H](C)CO)C(=O)c2cc(NS(=O)(=O)c3cn(C)cn3)ccc2O[C@H]1CN(C)C(=O)Nc1ccc(F)cc1,inactive: 0.966
10,C[C@@H]1CCCCO[C@@H](CN(C)Cc2ccccc2)[C@@H](C)CN([C@@H](C)CO)C(=O)c2cc(NC(=O)Nc3ccc(F)cc3)ccc2O1,inactive: 1.04
11,O=C(CN1CCOCC1)N[C@@H]1CC[C@H](CCn2cc(C3CCCC3)nn2)O[C@@H]1CO,inactive: 0.991
12,O=C(Nc1ccc(C(F)(F)F)cc1)Nc1ccc2c(c1)[C@@H]1C[C@@H](CC(=O)N3CCc4ccccc4C3)O[C@@H](CO)[C@@H]1O2,inactive: 0.987
13,O=C(CCCCCNC(=O)OCc1ccc(CO[C@H]2C[C@@H](c3ccccc3)C=C(C(=O)N3CCN(Cc4ccccc4)CC3)O2)cc1)NO,inactive: 0.918
14,C[C@H](O)C#Cc1ccc2c(c1)O[C@@H](CN(C)C(=O)Nc1ccccc1)[C@@H](C)CN([C@H](C)CO)S2(=O)=O,inactive: 1.02
15,COc1ccc(NC(=O)Nc2ccc3c(c2)C(=O)N([C@@H](C)CO)C[C@@H](C)[C@@H](CN(C)CC2CCCCC2)OCCCC[C@H](C)O3)cc1,inactive: 0.949
16,C[C@@H]1CN([C@@H](C)CO)C(=O)Cc2cc(NC(=O)Nc3ccc(F)cc3)ccc2O[C@H]1CN(C)C(=O)Nc1cccc2ccccc12,inactive: 0.981
17,CN1CCN(C(=O)C[C@H]2CC[C@@H]3[C@H](COC[C@H](O)CN3C(=O)C3CC3)O2)CC1,inactive: 1.01
18,C=CC(=O)N1C[C@H]2CC[C@H](O)[C@H]2C1,inactive: 1.01
19,C[C@H](CO)N1C[C@H](C)[C@H](CN(C)Cc2ccc3c(c2)OCO3)OCCCC[C@H](C)Oc2ccc(NS(=O)(=O)c3ccccc3)cc2C1=O,inactive: 0.992
20,C[C@H]1CCCCO[C@@H](CN(C)Cc2ccc(C(F)(F)F)cc2)[C@@H](C)CN([C@@H](C)CO)C(=O)c2cc(NS(=O)(=O)c3cccs3)ccc2O1,inactive: 1.05

row,Compound,relative growth
1,Cc1ccnn1-c1ccc(CN)cc1,inactive: 1.01
2,C[C@@H]1CN([C@H](C)CO)C(=O)c2cccc(NC(=O)Nc3ccccc3)c2O[C@H]1CN(C)Cc1ccc(C(F)(F)F)cc1,inactive: 0.838
3,CN(C)CCCNC(=O)[C@H]1[C@H](CO)[C@H]2Cn3c(ccc(-c4cccc(C(=O)N(C)C)c4)c3=O)[C@@H]1N2,inactive: 1.05
4,C[C@@H]1CCCCO[C@H](CN(C)C(=O)Nc2ccc(C(F)(F)F)cc2)[C@@H](C)CN([C@@H](C)CO)C(=O)c2cc(NC(=O)CCC(F)(F)F)ccc2O1,inactive: 1.04
5,C[C@H]1CN([C@@H](C)CO)C(=O)c2cc(NC(=O)Nc3ccc(F)cc3)ccc2O[C@@H]1CN(C)CC1CCCCC1,inactive: 0.973
6,O=C(O)c1cc(-c2ccc(F)cc2F)ccc1O,inactive: 0.72
7,CCSc1cccc2cccnc12,inactive: 0.897
8,COc1ccc(NC(=O)N(C)C[C@@H]2OCCCC[C@H](C)Oc3ccc(NS(=O)(=O)c4ccc(C)cc4)cc3C(=O)N([C@H](C)CO)C[C@H]2C)cc1,inactive: 1.02
9,O=C(C[C@H]1CC[C@@H]2[C@H](COC[C@@H](O)CN2C(=O)Nc2cccc(Cl)c2)O1)NCc1ccccc1F,inactive: 0.794
10,Cc1noc(C)c1S(=O)(=O)Nc1ccc2c(c1)C(=O)N([C@@H](C)CO)C[C@@H](C)[C@@H](CN(C)S(=O)(=O)c1c(C)noc1C)O2,inactive: 0.983
11,COc1ccccc1CNC(=O)C[C@@H]1C[C@@H]2c3cc(NC(=O)c4ccc5c(c4)OCO5)ccc3O[C@@H]2[C@H](CO)O1,inactive: 1.04
12,C[C@@H]1CN([C@@H](C)CO)C(=O)Cc2cc(NC(=O)Nc3ccc(C(F)(F)F)cc3)ccc2O[C@@H]1CN(C)CC1CCCCC1,inactive: 1.03
13,CC(C)Cn1cnc2ccccc21,inactive: 1.01
14,NS(=O)(=O)c1ccc(NC(=O)C2CC2)cc1,inactive: 1
15,Cc1c(NC(=O)c2cc3c(s2)CCCC3)cccc1-c1cn(C)c(=O)c(Nc2ccc([C@H]3C(=O)N(C)CCN3C)cc2)n1,inactive: 1
16,COc1ccc(CN(C)C[C@H]2OCCCC[C@@H](C)Oc3ccc(NC(=O)Nc4c(C)noc4C)cc3C(=O)N([C@H](C)CO)C[C@@H]2C)cc1,inactive: 0.894
17,COc1ccccc1CN(C)C[C@H]1OCc2ccccc2-c2c(n(C)c3ccccc23)C(=O)N([C@H](C)CO)C[C@@H]1C,inactive: 1
18,O=C(C[C@H]1C[C@@H]2c3cc(NS(=O)(=O)c4ccc(F)cc4)ccc3O[C@@H]2[C@@H](CO)O1)NCc1ccccn1,inactive: 1.01
19,Cc1cc(-c2cc[nH]n2)c(C)s1,inactive: 0.917
20,COc1ccc(NC(=O)N(C)C[C@@H]2OCCCC[C@H](C)Oc3ccc(NC(=O)Nc4c(C)noc4C)cc3C(=O)N([C@@H](C)CO)C[C@@H]2C)cc1,inactive: 1.03
